Laboratory results published in article PMC5700166.
The entries are a selection whose mix differs from that of the whole data set. The list includes weakly bound sequences.

Experiments:
Assay in all cases: protein-binding microarray (PBM)
Conditions in all cases: PBM: ~300 nM protein, 6 mM HEPES pH 7.8, 80 mM KCl, 0.5 mM EDTA, 0.5 mM EGTA, 6% glycerol, 35 ng/ul poly-dIdC, 1% milk, 1 h, room temperature; Ap Aiptasia and Nv Nematostella (sea anemones) / Co Capsaspora / Aq Amphimedon (sponge) / Dm Drosophila / Hu human; RHD is the Rel homology domain; high values mean tight binding; most listed sequences are background and not binding sites; double strand, one strand shown
GST-Ap-NF-kB RHD = target: T1, GST-Ap-NF-kB RHD (UniProt A0A913YAJ5)
T1 sequence: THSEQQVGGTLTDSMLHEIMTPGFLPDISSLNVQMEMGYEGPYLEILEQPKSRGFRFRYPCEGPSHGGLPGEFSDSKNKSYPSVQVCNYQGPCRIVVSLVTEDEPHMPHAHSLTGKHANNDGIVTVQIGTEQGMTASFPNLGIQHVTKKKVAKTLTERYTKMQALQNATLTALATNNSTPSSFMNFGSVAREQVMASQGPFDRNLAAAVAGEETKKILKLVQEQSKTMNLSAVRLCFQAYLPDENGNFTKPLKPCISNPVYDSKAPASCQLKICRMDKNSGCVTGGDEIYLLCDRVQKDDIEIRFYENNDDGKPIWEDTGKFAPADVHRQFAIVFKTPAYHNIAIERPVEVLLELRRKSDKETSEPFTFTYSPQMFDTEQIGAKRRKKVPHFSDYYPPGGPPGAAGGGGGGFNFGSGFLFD

[1] = target: T2, GST-Nv-NF-kB (Cys allele) (UniProt E5G601)
T2 sequence: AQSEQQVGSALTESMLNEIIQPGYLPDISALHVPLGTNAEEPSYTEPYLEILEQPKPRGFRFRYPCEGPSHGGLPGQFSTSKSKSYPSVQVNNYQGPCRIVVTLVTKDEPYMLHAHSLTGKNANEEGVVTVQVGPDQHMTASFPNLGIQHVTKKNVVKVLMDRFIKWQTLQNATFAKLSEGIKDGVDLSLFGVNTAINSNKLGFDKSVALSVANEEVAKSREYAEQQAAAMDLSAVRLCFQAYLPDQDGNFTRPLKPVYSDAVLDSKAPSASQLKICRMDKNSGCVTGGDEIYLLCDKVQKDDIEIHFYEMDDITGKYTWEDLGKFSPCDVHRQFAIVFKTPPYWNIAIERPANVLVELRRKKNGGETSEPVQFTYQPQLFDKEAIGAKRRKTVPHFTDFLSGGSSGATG

GST-Co-NF-kB = target: T3, GST-Co-NF-kB (UniProt F1ARL5)
T3 sequence: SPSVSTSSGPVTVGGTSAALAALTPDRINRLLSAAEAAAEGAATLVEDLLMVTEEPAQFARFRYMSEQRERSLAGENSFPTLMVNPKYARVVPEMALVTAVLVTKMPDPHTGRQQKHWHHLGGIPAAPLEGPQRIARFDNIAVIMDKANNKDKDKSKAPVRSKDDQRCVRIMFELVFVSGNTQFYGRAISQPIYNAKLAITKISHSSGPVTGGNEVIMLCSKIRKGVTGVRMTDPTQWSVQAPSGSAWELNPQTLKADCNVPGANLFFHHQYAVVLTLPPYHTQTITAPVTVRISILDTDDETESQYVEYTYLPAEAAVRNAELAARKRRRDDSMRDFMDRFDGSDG

GST-Aq-NF-kB = target: T4, GST-Aq-NF-kB (UniProt A9Y5G7)
T4 sequence: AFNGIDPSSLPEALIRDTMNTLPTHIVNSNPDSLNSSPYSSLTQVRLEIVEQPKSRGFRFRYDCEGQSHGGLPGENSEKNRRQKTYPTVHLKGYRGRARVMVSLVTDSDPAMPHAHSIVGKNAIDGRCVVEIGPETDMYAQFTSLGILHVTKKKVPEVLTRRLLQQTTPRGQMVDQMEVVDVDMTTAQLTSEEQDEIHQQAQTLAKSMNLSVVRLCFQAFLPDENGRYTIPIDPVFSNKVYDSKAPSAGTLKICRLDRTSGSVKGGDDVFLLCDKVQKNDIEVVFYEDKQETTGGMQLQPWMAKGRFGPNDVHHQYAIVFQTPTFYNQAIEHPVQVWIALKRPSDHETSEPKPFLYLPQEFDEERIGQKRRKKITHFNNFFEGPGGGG

GST-Dm-Relish = target: T5, GST-Dm-Relish (UniProt Q94527)
T5 sequence: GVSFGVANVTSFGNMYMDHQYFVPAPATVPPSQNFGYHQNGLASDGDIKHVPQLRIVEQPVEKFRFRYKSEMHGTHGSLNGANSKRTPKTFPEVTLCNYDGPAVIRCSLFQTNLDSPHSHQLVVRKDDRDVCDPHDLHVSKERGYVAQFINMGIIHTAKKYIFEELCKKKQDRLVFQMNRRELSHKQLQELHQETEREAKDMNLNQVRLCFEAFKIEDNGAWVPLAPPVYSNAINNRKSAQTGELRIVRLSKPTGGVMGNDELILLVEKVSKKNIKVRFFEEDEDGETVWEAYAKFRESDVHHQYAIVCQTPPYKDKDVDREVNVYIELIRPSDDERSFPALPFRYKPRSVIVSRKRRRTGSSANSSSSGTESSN

Row | Sequence | binding signal (GST-Ap-NF-kB RHD) [z-score] | binding signal [1] [z-score] | binding signal (GST-Co-NF-kB) [z-score] | binding signal (GST-Aq-NF-kB) [z-score] | binding signal (GST-Dm-Relish) [z-score]
1 | CCGATTAACATCAGGAAACAACCTGATGTTAATCGGGTCTTGATTCGCTTGACGCTGCTG | -0.181 | 0.783 | -0.239 | 2.89 | –
2 | CCGATTAACATCAGTAAAATCCATGATGTTAATCGGGTCTTGATTCGCTTGACGCTGCTG | -0.646 | -0.266 | 0.494 | 0.471 | –
3 | CCGATTAACATCACGTTCTTTCCTGATGTTAATCGGGTCTTGATTCGCTTGACGCTGCTG | 0.0952 | 0.717 | 0.781 | 0.667 | –
4 | CCGATTAACATCATGATGTTCCGTGATGTTAATCGGGTCTTGATTCGCTTGACGCTGCTG | -0.392 | -0.0775 | 0.00982 | -0.0225 | -0.138
5 | CCGATTAACATCACGTATTTTCCTGATGTTAATCGGGTCTTGATTCGCTTGACGCTGCTG | -0.237 | 0.58 | -0.0485 | 0.754 | –
6 | CCGATTAACATCAAGTAATTTTCTGATGTTAATCGGGTCTTGATTCGCTTGACGCTGCTG | -0.328 | 0.124 | -0.0369 | 0.0307 | –
7 | CCGATTAACATCAAAAAAATTACTGATGTTAATCGGGTCTTGATTCGCTTGACGCTGCTG | -0.67 | 0.0797 | 0.289 | 0.815 | –
8 | CCGATTAACATCACGTAGTTTCCTGATGTTAATCGGGTCTTGATTCGCTTGACGCTGCTG | 0.0811 | -0.0679 | 0.353 | 0.759 | –
9 | CCGATTAACATCAAAATTCCAATTGATGTTAATCGGGTCTTGATTCGCTTGACGCTGCTG | -1.42 | -0.674 | -0.243 | 0.143 | –
10 | CCGATTAACATCAGGGGAAACCCTGATGTTAATCGGGTCTTGATTCGCTTGACGCTGCTG | 10.2 | 11.4 | 7.22 | 9.57 | 10
11 | CCGATTAACATCAAAAATTCCCCTGATGTTAATCGGGTCTTGATTCGCTTGACGCTGCTG | 10.4 | 12.8 | 9.75 | 9.6 | –
12 | CCGATTAACATCACCAAATCAGATGATGTTAATCGGGTCTTGATTCGCTTGACGCTGCTG | 0.13 | -0.076 | 0.0465 | -0.0368 | -0.00595
13 | CCGATTAACATCAGGAAATTCACTGATGTTAATCGGGTCTTGATTCGCTTGACGCTGCTG | -0.25 | 0.109 | 0.217 | 0.721 | –
14 | CCGATTAACATCAGAAATCCCACTGATGTTAATCGGGTCTTGATTCGCTTGACGCTGCTG | 2.54 | 2.54 | 1.65 | 2.41 | –
15 | CCGATTAACATCAGAAAATTTCCTGATGTTAATCGGGTCTTGATTCGCTTGACGCTGCTG | -0.12 | 0.949 | 0.283 | 2.09 | –
